# In the supplement of paper PMC11417369:
# This is one part of the list.
# Tested on: PfSIP2 AP2 domain 1 (GST-tagged)
# Assay: gcPBM binding intensity (ln(normalized median fluorescence intensity)); higher = stronger DNA binding
# Method in brief: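 Alexa488 anti-GST antibody, scanned at 488 nm, detected GST-tagged P. falciparum DNA-binding domains that had been expressed in E. coli and incubated for 1 h on an Agilent 4 × 180k array. The array carried primer-extended double-stranded 36-bp intergenic genomic probes and negative controls. Binding intensity is the highest Masliner-normalised natural-log median intensity across replicate spots of either orientation of each probe.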
row,Sequence,gcPBM binding intensity (ln)
1,ATATATATATATATATATATATATATGATTATTACT [GTGCAC_negctrl_site109],9.39
2,AAAATTCAGCGAAAGGGTACATATGTGTAAGGGTAA [XGTACX_site8205],7.16
3,TATATTTATATACCAACACACATACATATTTATATA [CACACA_site6931],6.93
4,CTATTATATCAGTAGACACACATATAACATTTATAT [CACACA_site141],7.23
5,ATCTTATATTATCACACACACACGCACAAAACAGAA [CACACA_site1463],7.79
6,TTTATTAAACTTGACACACACACACCCACATATATA [CACACA_site760],7.29
7,ATATTATATAGAAACACACATACACATGTAAATATA [CACACA_site2037],6.98
8,ATGGATTTTACCATAGCACACATATATGAATATTTT [CACACA_site8535],6.88
9,ATATAGAAAATGCATACACACTTTATATATATATTT [CACACA_site4658],6.89
10,TAATTATTTCGTATATTTGAATGGTACATGCTTATA [CACACA_negctrl_site1178],6.92
11,AATGTGCTCGCTATTACACACTCATTGGGATAAAAT [CACACA_site8627],6.91
12,AGTAACAATTATTATGCATGTACAAATAATCATTTT [TGCATGCA_site867],6.98
13,TATATATATTTTTGAAGTACTTATTACACTAGCATT [XGTACX_site8965],7.31
14,AAGAAAATATAACAAAGTAAAAACATATTATATATA [TGCATGCA_negctrl_site248],6.62
15,ATATATATATATATATGTACATATATTTTCTTTTTG [XGTACX_site6017],9.7
16,TTGTTCTATAATTATACATGCATTAACAGAGTAAAA [TGCATGCA_site909],7.61
17,AAAAACGATTAATGTGTACACACATAGTTATAAACA [CACACA_site8659],6.9
18,TTTTTTTTTTTTTAATGTACAAATATGGTGACAAAA [XGTACX_site8709],7.31
19,AGGATAACATACAAAAGTACATAAAACTAAAAAAAC [XGTACX_site26],7.32
20,TGGGAATAACGACACACACACACACGGATATAAATA [CACACA_site7633],7.13
21,TATATTTTGTTTTTGTGTACATATTGGTAGTTATTT [XGTACX_site7659],7.21
22,AAAAATAGTCTTCTTGCACTTTTTAATTTATTTTAA [CACACA_negctrl_site1322],7.29

row,Sequence,gcPBM binding intensity (ln)
1,TGATTATCCTATATATATTTCATAATGGAAAAAAAT [TGCATGCA_negctrl_site444],7.04
2,AATGTGGTATTTACAAAAAGGCTTTATACTTAAAAA [XGTACX_negctrl_site566],7.08
3,CTTTTCATCTTCTTAACACACAAAAAAAAAAAAAAA [CACACA_site3886],7.39
4,CTTTTTATTAAATATGCATGTGTATCAACAGTGAAT [TGCATGCA_site447],7.31
5,GTTATACGCATATATACACACATATGTAAATATATA [CACACA_site3280],7.17
6,TAAAAAAAATAGCATACACACATATATACCTATATA [CACACA_site4535],6.79
7,ATCATAACACCTCCACACAAATAAATATAACATATA [XGTACX_negctrl_site269],7.34
8,ATGAGTGCACAAATATATATATATATATATATATAT [CACACA_negctrl_site404],11.6
9,CATACACCCGGACACACACACACACCCATATATAAT [CACACA_site4494],7.36
10,TTGTTTTTTTCTTTTTGTACATATACAACATACATA [XGTACX_site8996],7.21
11,AAACAATTTATGTGTAGTACATGTTGGAGATAATTT [XGTACX_site6000],7.22
12,GAAAATATATTATTTACACACATGTTCAAATTAAAA [CACACA_site3761],6.85
13,TATTAAATATAAGTCACACATAATTTTTCGTCCTTT [CACACA_site5065],6.79
14,ATATATATATATACAACACACATGTAATATATAAAT [CACACA_site3294],9.24
15,TACTGATCCACATTTATACACACCTCGGTTTGTAGA [CACACA_site417],6.89
16,TTTTTAAATATATAATAGAATTGATTGTATTATATA [CACACA_negctrl_site196],6.64
17,TATAGATTCTTTTAATGTACATGTCTTTTCATTTCC [XGTACX_site8348],7.1
18,TTGTGTTCTTATTTTTACACCGAAAAATATTAAAAG [CACACA_negctrl_site535],7.41
19,CCTTTATACATTTTCTGTACTGATATATATTAAAAA [XGTACX_site8467],7.44
20,GTATGAAAAAAAATATGTACACATATATATTTGGTA [XGTACX_site6309],7.07
21,ATATAAAAAAAAAAAAAAAAATATATATATATATAT [GTGCAC_negctrl_site251],9.67
22,TTGGTTTGAAAGAAAGAAATTATTAAAAAGGAAATA [CACACA_negctrl_site26],6.72

row,Sequence,gcPBM binding intensity (ln)
1,GATATACTGTCAATTCTACACACCATAGGGGGAGCA [CACACA_site8562],8.06
2,ATATATTTATTAAGGTGTACAAAAATTATGTTGCAT [XGTACX_site7546],7.16
3,TATTTTATCTAAGGATGTACATTATTAAGAAAATGT [XGTACX_site6123],7.03
4,TAGAAATATAATTAATGTACATATGATATTATATAT [XGTACX_site923],6.97
5,ATTTATTTATATAGAAGTACATATTTATTTATATAT [XGTACX_site6283],6.99
6,CTTTTTTAAATTATTGCACACAAAAATGAAAGGAAA [CACACA_site8412],7.25
7,ACATCAAGCAGACACACACACACACCCACCCACCGA [CACACA_site371],7.1
8,TAATAAAAGATATATACACACAAATAAATAAATAAA [CACACA_site7818],7.08
9,AAAAAAAAATATATATATATATATATAAATAAATTT [CACACA_negctrl_site519],7.45
10,ATAATATAAACATATTGTACACATATATTGCTATTT [XGTACX_site2799],7
11,AAATATAAAAAAAATATATAATTTTTACATCGAATT [CACACA_negctrl_site544],6.81
12,TTCTATGAATTCATAGTGCAAATGAGTTATTTTTTC [GTGCAC_site9709],7.41
13,TTATTATTGTTATGTTGTACTTTTACAAACTTTTTG [XGTACX_site8797],7.15
14,AAGAAAATAGGGTTCATAGGATTATACTTTTGGAAT [TGCATGCA_negctrl_site80],6.61
15,TCGTTTCCTTAAAATTGTACTTTTTTTTTTTTTTTT [XGTACX_site64],7.63
16,TATTATAAAGAAATTACACACATGCAATGAAAAAAA [CACACA_site1697],6.88
17,AGAGTATATATATATGCATGCATATCTCATATTTAT [TGCATGCA_site509],7.07
18,TAATGATAAATACATACACACAAAAAATAATATATA [CACACA_site2576],6.85
19,TGTTATTATTTGTACACACACATATAGATCCTTGTT [CACACA_site7667],7.17
20,ATTAAAGAGATATATACACACATTATGGGGGAATAA [CACACA_site6226],7.45
21,TGAGGAAACATGAGATGTACATATAAATTTTTTTTT [XGTACX_site2595],6.71
22,CCTAAATATTTTTTATGTACATATTTATCTAAATTT [XGTACX_site6835],7.13

row,Sequence,gcPBM binding intensity (ln)
1,ATAGAAATTATAAATAGTACATAATAAAAATGAGCA [XGTACX_site822],7.25
2,TAAGAAATAAATAGTACACACATAGACACCCACCCA [CACACA_site8429],7.39
3,AAACAAAATGGTAACACACACATATATAAATATGTA [CACACA_site6994],6.89
4,AAAAAAAATAGACACACACACATACACATAAATATA [CACACA_site7742],7.01
5,AGGGTTACAAGAGGAACACACAAAAAAATAAATAAA [CACACA_site1436],6.88
6,ATTAAATCTATATATACACACATGTTTGGTATATTC [CACACA_site2657],7.06
7,TTTGTAATAAACTACTTTTTTTTTTTTTTTTTTTTT [CACACA_negctrl_site571],8.36
8,TTTATATTACAATAATATATTAAAAAATAAAATATA [TGCATGCA_negctrl_site18],6.87
9,CGATTACTAATTTTTAGTACATATAATCAATATGTA [XGTACX_site7857],6.89
10,ATCTATTTCTATTGTTGTACTTATTTTTCATTGTTT [XGTACX_site6942],7.27
11,ATGTAGCCTTACGCTTGTACGAATATCTTAATTTTT [XGTACX_site4331],6.82
12,TTCATATAAATACATGCACACAAAAATATCAATACA [CACACA_site8753],8.38
13,ATATATTTTATTACCAGTACATATATTAAAATAATA [XGTACX_site8440],7.22
14,TATACAATATAAAATACACACGCACCCAAAAAAAAA [CACACA_site9174],10.4
15,ATTTTTTTATTTGATTGTACAATTTTCTTTCAAAAT [XGTACX_site2902],7.19
16,ATATAATGTGTAGGCCGTATTTACGTTTGGCAATCA [CACACA_negctrl_site1130],6.97
17,TATAATATAATATATATATATATATATATATAAGAA [CACACA_negctrl_site78],7.66
18,ATATAGGTAATATTTTGTACATATTTTTGGGGTAGT [XGTACX_site5634],7.3
19,AATTCTTTTTTCAACACACACACACCCGAAAATATA [CACACA_site3111],7.36
20,ATATTTTTTGTATGTTGTACATAAAATATACATTTT [XGTACX_site6815],7.01
21,AGATACTTTTTTAAAAGTACAAAAACTTTCGATATA [XGTACX_site959],6.99
